Data from ChEMBL document CHEMBL1201862, “PubChem BioAssay data set” (2004).
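Where inhibition never reached the appropriate level, the endpoint shown equals the highest concentration tested. Otherwise, values were interpolated linearly from a five-concentration, 48-hour dose response in 96-well plates. At the GI50, growth is halved.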 Active and inactive are the calls of the source. No stated cut-off is given here; in the data, active = GI50 up to about 1.1 µM and inactive = higher.

Tested on: NCI-H322M
Assay: growth of human tumour cells (NCI), 48 h

SMILES	GI50
C[N+]1([O-])[C@H]2CC(OC(=O)[C@H](CO)c3ccccc3)C[C@H]1[C@H]1O[C@H]12 (stereo partly specified)	inactive: > 100 µM
Cc1cc(C)c2c(=N)c3ccccc3n(CCCCCCn3c4ccccc4c(=N)c4c(C)cc(C)nc43)c2n1	inactive: 1.64 µM
CC(C)c1ccc(/C=C2\CSCC3=C2N=C2SCC(=O)N2C3c2ccc(C(C)C)cc2)cc1 (stereo unspecified)	inactive: > 100 µM
Cc1c(Cl)cccc1NC(=O)/C=C/c1ccccc1	inactive: 76.2 µM
CC1(C)O[C@@H](C[C@]2(C#N)C[C@H](CCl)OC(C)(C)O2)C[C@@H](C#N)O1	inactive: > 100 µM
COC(=O)C1c2c(c3ccccc3n2C(=O)OC)CCN2CCC1C(S(=O)(=O)c1ccccc1)C2=O (stereo unspecified)	inactive: > 100 µM
CCCCCCCSCC(O)COC(c1ccccc1)(c1ccccc1)c1ccccc1 (stereo unspecified)	inactive: > 100 µM
CSc1nc(Cl)c2c(n1)Sc1ncnn1C2O (stereo unspecified)	inactive: 16.1 µM
CC1C2CC(CC2O)C1(C)C (stereo unspecified)	inactive: > 100 µM
O=C1CCC(c2ccccc2)=NN1c1nsc2ccccc12	inactive: > 100 µM
C=C(Nc1ccc([N+](=O)[O-])cc1[N+](=O)[O-])c1c/c(=N\NC(N)=S)c2ccccc2o1	inactive: 94.8 µM
NC(=S)N/N=C\c1ccc(OCc2cccc(COc3ccc(/C=N/NC(N)=S)cc3)n2)cc1	inactive: 11.4 µM
Cc1ccc(-c2n[nH]c(=O)n2/N=C\c2ccccc2)cc1	inactive: 70.6 µM
CC(C)COC(=O)N1N=NC2C3CC(=O)C(O3)C21 (stereo unspecified)	inactive: > 100 µM
COC(=O)/C=C(/C)n1nc2ccccc2n1	inactive: > 100 µM
COc1ccc2c(c1)c(=O)c1ccccc1n2/C=C/C(=O)O	inactive: > 100 µM
CCOc1cccc2sc(N)nc12	inactive: > 100 µM
Cc1c(Cl)nc(Cl)nc1Cl	inactive: 2.36 µM
Clc1ccc2c(c1)CC1C[N+]3=C(CCCCC3)C1=C2 (stereo unspecified)	inactive: > 100 µM
O=C1Sc2ccccc2NC1=C(C(=O)c1ccccc1)C(=O)c1ccccc1	inactive: 31.3 µM
C=C1C(=O)O[C@H]2C/C(C)=C/CC[C@@]3(C)O[C@](C)(CC[C@@H]3I)[C@@H](I)C[C@@H]12	inactive: 8.55 µM
O=C1C(=O)c2ccccc2C=C1[N+](=O)[O-]	inactive: > 100 µM
COc1cccc2c1C(=O)c1c(O)c3c(c(O)c1C2=O)C[C@@](O)(C(C)=O)CC3S(=O)(=O)O (stereo partly specified)	inactive: > 100 µM

SMILES	GI50
CC/C=C/C(CC)C/C(C)=C\[C@]1(CC)C[C@H](CC)[C@H](CC(=O)O)OO1 (stereo partly specified)	inactive: 1.71 µM
N#CC(C#N)=C1CCC2C(=C(C#N)C#N)CCC12 (stereo unspecified)	inactive: > 100 µM
CCCCNC(=S)Nc1nc(C(=O)NNC(=S)NC2CCCCC2)cs1	inactive: > 100 µM
Cc1ccc(OC(=O)N2C/C(=C\c3ccccc3)C(=O)/C(=C/c3ccccc3)C2)cc1	inactive: > 100 µM
CSC(=S)N(C)c1nc(N(C)C)s[s+]1	inactive: > 100 µM
C=C1C[C@@H]2C[C@@H](C)CC(O)[C@]2(CCCN)C1O (stereo partly specified)	inactive: > 100 µM
COc1ccc(OC)c(NC(=O)C(=O)C(C(=O)c2ccccc2F)C2OC(=O)c3ccccc32)c1 (stereo unspecified)	inactive: 30.6 µM
CC1OC(OCC2OC(Oc3c(-c4ccc(O)cc4)oc4cc(O)cc(O)c4c3=O)C(OC3OC(C)C(O)C(O)C3O)C(O)C2O)C(O)C(O)C1O (stereo unspecified)	inactive: > 100 µM
CCCCn1/c(=N/C(=S)N(C)C)ss/c1=N\C(=S)N(C)C	inactive: > 100 µM
CN[C@@H](C)[C@@H](NC)c1ccccc1	inactive: > 100 µM
O=C(O)c1cc(=O)c2cc(C(=O)c3cccs3)c(Cl)c(Cl)c2o1	inactive: > 100 µM
C=C1CCCC2[C@](C)(CC3=C(O)C(=O)C=C(OC)C3=O)[C@@H](C)CC[C@]12C (stereo partly specified)	inactive: 3.56 µM
CC(C)=CCCC(C)[C@H]1CC(O)C2(C)C3=CCC4C(C)(C)[C@@H](O)CC[C@]4(C)C3=CC[C@]12C (stereo partly specified)	inactive: 5.5 µM
O=C1/C(=C/c2cccc(Br)c2)Cc2ccccc21	inactive: 55.1 µM
O=C1OC(c2ccc(O)c(F)c2)(c2ccc(O)c(F)c2)c2cccc3cccc1c23	inactive: 16.5 µM
Cc1[nH]n(C2=NCCN2)c(=O)c1Cc1ccccc1	inactive: > 100 µM
CC(=O)OCCN(C1=NCCN1)/[N+](C=c1ccc(=C=[N-])cc1)=C/c1ccc(C#N)cc1	inactive: > 100 µM
CC(=O)O[C@@H]1C2=C(C3=C([O-])C4=CC=CC(=O)C4C(=O)C3=C2[N+]#N)[C@H](OC(C)=O)[C@@H](OC(C)=O)[C@]1(C)O (stereo partly specified)	active: 0.615 µM
C=CC(OC(C)=O)c1ccc(OC(C)=O)cc1 (stereo unspecified)	inactive: 16.2 µM
Nc1ccccc1SCc1csc(-c2ccc(Cl)cc2)n1	inactive: 39.8 µM
CC1=CC(=O)[C@@H](O)[C@]2(C)[C@H]3[C@@]4(O)OC[C@]35[C@H]([C@@H](C)[C@H]4O)[C@@H](O)C(=O)O[C@@H]5C[C@@H]12	inactive: 2.61 µM
O=c1c2cc(I)ccc2nc(-c2cccs2)n1O	inactive: 22.1 µM
CN(C)CCNc1ccc2nnn3c4ccc(O)cc4c(=O)c1c23	inactive: 1.71 µM
